Test results published in the supplement of paper PMC10126150.
Sequences with one replicate were seen in a single cluster, so their values are uncertain.

Test system: ATP
Assay: switch fluorescence ratio, 500 uM ATP over buffer (Cy3 cluster intensity, sum of 5 cycles each) (fold (ratio)); higher = stronger signal-on switching upon ATP binding; sequences stand for … in TCGTCGGCAGCGTCAGATGTGTATAAGAGACAGTTTTTTTTTTTTTTTTTTTTTTTTT…TC
Conditions: aptamer strand: ATP DNA aptamer (quencher-CACCTGGGGGAGTATTGCGGAGGAAGG + anchor), 100 nM annealed; ATP concentration: 500 uM; one replicate
Method in brief: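 The fluorescence ratio divides summed target-cycle Cy3 intensity by summed buffer-cycle Cy3 intensity for each cluster and is averaged per switch-domain sequence. Cy3-labelled switching-strand clusters on a modified Illumina MiSeq flow-cell were annealed to 100 nM quencher-labelled ATP aptamer, then imaged in selection buffer and again after 15 min with 500 uM ATP at 22 °C. Five such cycles were run, with NaOH stripping and re-annealing between them, and clusters outside 100-1000 RFU were excluded.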
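Further: ATP exposure 15 min at 22 °C before imaging.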

Sequence | switch fluorescence ratio
CGACCCGACC | 1.25
TTTTGTTCG | 0.991
ATAATAAGGA | 1.02
TGGTTGACGC | 1.08
CTCGTTTTAC | 1.07
ATGGCTTTGG | 0.951
TTCCATCGGA | 1.02
AAAGTGGATG | 0.98
TATCAATACG | 1.26
TACATTAGCC | 1.02
CCAACAACCC | 1.08
TATCTGCAGG | 1.05
CGCGGTGGTG | 1.02
GGCAAAGGCT | 1.02
TACGCCCCTC | 1.23
TGGCGGGCCC | 1.14
AGATGTGTGC | 1.03
TGTGGGAATG | 0.937
GGCTCACAAT | 1.04
GGGAAATG | 1.06
CTTAATTGC | 0.977
CTTTATGTAT | 1.02
TACGGGAGGA | 1.05
ATCCGAACCA | 1.01
TTGGAGCCAA | 2.77

Sequence | switch fluorescence ratio
ATTGAGGCAT | 1.03
TTGTCGCCT | 0.963
ATATCAAGGT | 0.999
CAGGGACGAT | 1.01
GGATAACCTG | 1.06
TTTCATATTG | 0.984
AGATATTAGG | 0.994
AACCCGGCAT | 1.11
ACATAAAGAC | 1.11
ATCGTCATCT | 0.984
GAGGGGCGGG | 0.981
GATTTTAACT | 0.954
ACATAACGTA | 1.22
GCCGAGTCGG | 1.03
GAGTAACCCA | 1.01
GGTTACACTC | 1.05
CTTAGCTAAA | 1.02
GAGATCGCT | 1.02
CTAGAGCTAA | 1.37
AGACAGTGAC | 1.1
GATATGAGGT | 0.935
TCGTTGCGTG | 1.01
TATCTCCTGA | 0.981
AGGGGATATG | 0.966
CCAGCGTTGG | 1

Sequence | switch fluorescence ratio
ATCGTCATGC | 1.06
TCCGTACTGA | 1.12
CATGGACTTG | 1.03
CAGGCCACTC | 1
ATTTCGGTT | 0.988
ATAGTAAAAA | 0.958
TTTGGTACCA | 1
CTTGTTGCCC | 1.04
GATCATGTTG | 1.02
CGCCTTTGCG | 1
GTCTTAATGG | 0.994
GCTCACGGGG | 1.03
AAAACATTCA | 1.15
AGTTGACCTG | 0.937
ATAGATCAGT | 1.02
ATAATTATGG | 1
GAGGTAGGAT | 1
CATAAATCGC | 1.13
CCCCGCGCGG | 1.03
GGGGATTCGG | 1.06
TCCTGGTGGG | 1.02
TACTGGCGAA | 0.983
CCGAAGGGAT | 1.25
ACTTTAATGG | 0.992
GGGTAACTCA | 0.973

Sequence | switch fluorescence ratio
TGGCTATATT | 1.14
GAGAGGGATC | 1.08
CCACCAGGTT | 4.1
TCAGTTTCAT | 0.992
CTAGGGGGGT | 0.979
GGAGTAACTG | 1.03
CCCGGATGAG | 1.02
CAGGCCTCTC | 1.01
ACGTGGCAGA | 0.964
GATTGATATT | 1.02
TATTACGCTA | 1.32
AAAATAAGAC | 1.06
GCCTAATATC | 1.05
GCGTTATGAC | 1.06
GCTGAGCCTG | 0.945
AAGGGATGGT | 1.03
AATCTGATTT | 0.988
GCAGCGGGGT | 0.981
CGGGGCGTTC | 1.04
GAGCATGGTT | 1
ACGTGGATGG | 0.966
CGGGGCATAC | 4.68
GCCGGGACGT | 0.993
GTGCTCCTGT | 1.01
ACGGTGACCT | 1.28

Sequence | switch fluorescence ratio
AATTTAGCGA | 0.982
ATACGGCTGT | 0.987
TGCCTTTACA | 0.981
TGGGAGCTCA | 0.979
CAGTTATATG | 1.02
TCAGTATAAT | 1.02
TAGCAGGATC | 1.08
ACATCTTAGT | 1.02
GGTCCCATTT | 0.994
CTGGTAGTGT | 1.04
TCTAGCTTG | 0.99
AGAAGAGGGA | 0.999
CCTGATTGTT | 1
GGGGCGAAAT | 1.02
TTGAACCCCT | 1.4
AATAACGCT | 1.04
ACTCTCGACT | 1.04
AATGAGATTA | 1.01
GAGCAAGCGG | 1.09
AAACGGGTA | 1.05
AGGGGACTCT | 1.02
GGTCGTAAAA | 1.03
GTCGAGCCCG | 0.98
CAAATGTGGT | 0.995
CAAACCCCGC | 1.67

Sequence | switch fluorescence ratio
CGAAAACATC | 1.01
AATACGCCAA | 1.58
AGGGGATCCA | 0.976
GCCCTTGACG | 0.992
TCGGTCGACT | 1.02
TTAATGAGAC | 1.01
GCTTATTGCC | 1.03
GCAAGTACTG | 1.43
GCTCACTAGA | 1.05
CGTAGGTCCA | 1.01
TTTTCGTTAG | 1.01
CGTTCGGCGG | 1.06
AGGACTTACG | 1.06
GACGACTCTG | 0.959
TCGCGGATTC | 1.11
TAGTATTTT | 1.02
CTAGTTACGG | 1.05
GGGTGTCTGT | 0.988
ATTCTGCACT | 1.05
TTATCCAAGC | 0.954
GAACTTGACG | 1.02
CACTTGGTTC | 0.994
TTTCATTCCA | 1.03
TGACGGACGA | 1.21
CCATGAAGGT | 1.04

Sequence | switch fluorescence ratio
TCGCCAAGAT | 1.16
CTGGCCATTT | 1.03
GGAGCGGCAT | 1.12
TAGTACTGGT | 0.965
ATTGGGGT | 1.01
TTCTCTCTTT | 1.03
GATTGTAGAT | 1
CGAAGGGGGT | 1.01
TCTGCTCGCA | 0.993
CTGGCCGAGA | 0.982
TCGCGGCGGG | 1.02
TCACCCGTAG | 1.08
CTGTTAACAC | 1.03
TCGATGGCTG | 0.997
TGGGCCGGT | 1.04
TAATAACGAT | 1
GAGATGTGCC | 0.956
TCTAACTTCA | 1.06
CGGCGCAGGA | 1.09
ATGCGCCAAT | 1.2
GGGTCCACCG | 1
ATTCCAAGCT | 1.09
GTAATCAAGG | 0.956
CTTAGCAGGA | 1.01
AATCAAATTC | 1.03

Sequence | switch fluorescence ratio
ATTCTAATAG | 0.981
AAAAAGAGTG | 0.968
GAGCTTCGG | 1.03
GACGTCGTCT | 0.936
GCGCACTTTT | 1.06
ATTGAGCTTT | 0.964
ACAAGAGGTA | 1.02
GGGCGCCAGA | 0.996
ACCTGCCAGT | 1.05
CAATGCATCT | 1
ATGAGCTGCA | 0.934
CGGGTGTCCG | 1.03
CTCGATTTTT | 0.982
TACCCGTCCT | 1.11
CTCTAGGGG | 3.28
AGGCTTGGTA | 0.935
GGGCGACTAG | 1.04
GATTGGCAAC | 1.06
TTAGATGTGA | 1.06
CGTAGAGGT | 1.01
TTTGCGAAAT | 0.972
TATTAACCAA | 0.979
GCTGTGAGG | 1.04
TAATCGCCTT | 1.01
TACCATGACA | 1.04
